{
  "source": "PubChem BioAssay (Tox21)",
  "key": {"[1]": {"experiment": "qHTS assay for small molecule agonists of the p53 signaling pathway (AID 651631; calls by dose curve; also: nearly all actives have a fitted effect of over 15% in size; also: potency is read from the fitted curve at half-maximal effect; as to activation: % is scaled to controls: 0 for no effect and ±100 for the full control effect)", "settings": "HCT-116 p53RE-bla reporter, beta-lactamase FRET ratio, 16 h; activation: at 73.3 µM (top of the series) unless noted", "outline": "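HCT-116 cells carrying a beta-lactamase reporter under p53 response elements were dosed with compound for 16 h at 37 °C. LiveBLAzer B/G FRET substrate was then added for 2 h at room temperature, and fluorescence intensity was read to detect pathway agonism.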"}, "[2]": {"experiment": "qHTS assay for small molecule disruptors of the mitochondrial membrane potential (AID 720635); also: potency is read from the fitted curve at half-maximal effect", "settings": "HepG2 mitochondrial membrane potential, Mito-MPS dye ratio; ratio activity, negative = MMP loss: at 83.2 µM (top of the series) unless noted", "outline": "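Mitochondrial membrane potential tracked with Mito-MPS dye, red aggregates (ex 540/em 590 nm) against green monomers (ex 490/em 535 nm). Compound treatment 1 hr at 37C, dye 30 min in HepG2.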"}, "[3]": {"target": "Glucocorticoid receptor (Homo sapiens) (UniProt P04150)", "sequence (P04150 whole entry, looked up)": "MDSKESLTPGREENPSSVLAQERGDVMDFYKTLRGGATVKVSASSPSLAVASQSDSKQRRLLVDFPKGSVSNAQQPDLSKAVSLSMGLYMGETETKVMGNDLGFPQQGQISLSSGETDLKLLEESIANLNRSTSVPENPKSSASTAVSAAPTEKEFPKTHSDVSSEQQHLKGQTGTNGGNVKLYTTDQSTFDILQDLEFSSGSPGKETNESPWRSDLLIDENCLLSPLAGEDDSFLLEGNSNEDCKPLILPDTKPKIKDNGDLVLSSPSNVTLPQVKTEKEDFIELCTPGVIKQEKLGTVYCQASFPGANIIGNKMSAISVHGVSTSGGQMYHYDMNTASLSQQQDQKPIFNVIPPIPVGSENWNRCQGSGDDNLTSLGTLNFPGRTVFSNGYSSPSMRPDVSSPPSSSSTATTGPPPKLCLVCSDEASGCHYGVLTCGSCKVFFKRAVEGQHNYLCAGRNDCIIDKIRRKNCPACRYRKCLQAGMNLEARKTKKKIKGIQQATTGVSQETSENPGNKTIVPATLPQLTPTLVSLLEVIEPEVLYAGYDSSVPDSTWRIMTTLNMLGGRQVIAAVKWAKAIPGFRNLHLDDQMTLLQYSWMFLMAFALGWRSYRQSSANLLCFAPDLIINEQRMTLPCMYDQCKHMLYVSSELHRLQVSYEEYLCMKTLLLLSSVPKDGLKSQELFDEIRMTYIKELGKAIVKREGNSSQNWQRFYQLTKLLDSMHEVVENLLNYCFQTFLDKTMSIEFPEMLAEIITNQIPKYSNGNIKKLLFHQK", "experiment": "qHTS assay to identify small molecule antagonists of the glucocorticoid receptor (GR) signaling pathway (AID 720692; active = well fitted inhibition curve with a large enough effect in the signal ratio in the repeat runs, not every such curve was filed as active; inconclusive = weak or mixed curves, or effect the other way; inactive = no such curve, though single readings can be large or run the other way; the % refers to the signal ratio; also: % is scaled to controls: 0 for no effect and ±100 for the full control effect)", "settings": "GR-bla HeLa, beta-lactamase FRET ratio, dexamethasone-stimulated, 18 h; activity change, negative = inhibition: at 58.5 µM (top of the series) unless noted", "outline": "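GR-bla HeLa cells carrying a GRE-driven beta-lactamase reporter received compound after 4 h plating, then dexamethasone (5 nM final). After 18 h at 37C, the FRET substrate was loaded for 2 h at room temperature and fluorescence read.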"}, "[4]": {"experiment": "qHTS assay for identifying genotoxic compounds that show differential cytotoxicity against isogenic chicken DT40 cell lines with known DNA damage response pathways - Rev3 mutant cell line (AID 743014); also: nearly all actives have a fitted effect of over 55% in size; also: potency is read from the fitted curve at half-maximal effect", "settings": "chicken DT40 Rev3-/- viability, CellTiter-Glo, 40 h; activity, negative = cytotoxicity: at 68.4 µM (top of the series) unless noted"}, "[5]": {"experiment": "qHTS assay for identifying genotoxic compounds that show differential cytotoxicity against isogenic chicken DT40 cell lines with known DNA damage response pathways - Rad54/Ku70 mutant cell line (AID 743015); also: potency is read from the fitted curve at half-maximal effect; nearly all actives have a fitted effect of over 60% in size", "settings": "DT40 Rad54/Ku70 mutant viability, CellTiter-Glo, 40 h; activity change, negative = cytotoxicity: at 66.8 µM (top of the series) unless noted"}, "[6]": {"target": "Androgen receptor (Homo sapiens) (UniProt P10275)", "sequence (P10275 whole entry, looked up)": "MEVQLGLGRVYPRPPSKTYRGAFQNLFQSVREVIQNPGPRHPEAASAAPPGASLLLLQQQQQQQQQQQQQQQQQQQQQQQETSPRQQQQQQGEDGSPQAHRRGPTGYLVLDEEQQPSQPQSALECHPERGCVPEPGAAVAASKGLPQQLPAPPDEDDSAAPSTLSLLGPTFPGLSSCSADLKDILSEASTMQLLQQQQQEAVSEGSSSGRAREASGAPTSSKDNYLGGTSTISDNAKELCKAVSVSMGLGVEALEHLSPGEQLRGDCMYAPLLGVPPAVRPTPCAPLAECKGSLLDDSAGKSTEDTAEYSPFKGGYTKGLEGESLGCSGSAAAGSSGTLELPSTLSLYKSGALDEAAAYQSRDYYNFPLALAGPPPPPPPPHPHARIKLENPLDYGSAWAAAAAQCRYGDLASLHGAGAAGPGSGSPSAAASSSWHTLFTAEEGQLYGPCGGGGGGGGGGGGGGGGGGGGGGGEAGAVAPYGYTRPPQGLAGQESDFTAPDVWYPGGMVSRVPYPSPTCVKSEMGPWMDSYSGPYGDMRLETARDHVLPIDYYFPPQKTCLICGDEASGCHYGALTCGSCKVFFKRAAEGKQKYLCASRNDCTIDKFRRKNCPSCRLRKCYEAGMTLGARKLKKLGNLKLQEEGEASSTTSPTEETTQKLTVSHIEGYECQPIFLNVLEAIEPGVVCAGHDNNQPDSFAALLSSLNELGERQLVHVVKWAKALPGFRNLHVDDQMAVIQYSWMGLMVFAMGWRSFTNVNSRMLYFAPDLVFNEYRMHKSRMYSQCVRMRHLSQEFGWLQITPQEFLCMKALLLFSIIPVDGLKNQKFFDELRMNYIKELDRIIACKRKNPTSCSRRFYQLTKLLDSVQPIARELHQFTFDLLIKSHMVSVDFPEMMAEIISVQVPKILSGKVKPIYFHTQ", "experiment": "qHTS assay to identify small molecule agonists of the androgen receptor (AR) signaling pathway (AID 743036; active = well fitted activation curve with a large enough effect in the signal ratio in the repeat runs, with a control signal flat, not every such curve was filed as active; inconclusive = weak or mixed curves, or effect the other way; inactive = no such curve, though single readings can be large or run the other way; the % refers to the signal ratio; also: % is scaled to controls: 0 for no effect and ±100 for the full control effect)", "settings": "HEK293 AR-UAS-bla GripTite, beta-lactamase FRET ratio, 16 h; activation: at 62.4 µM (top of the series) unless noted", "outline": "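AR-UAS-bla HEK293 cells, plated 4 h before dosing, were treated with compound for 16 h at 37C. beta-Lactamase reporter read after 2 h with LiveBLAzer B/G FRET substrate at room temperature.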"}, "[7]": {"experiment": "qHTS assay to identify small molecule antagonists of the thyroid receptor (TR) signaling pathway (AID 743065); also: potency is read from the fitted curve at half-maximal effect; nearly all actives have a fitted effect of over 55% in size", "outline": "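Antagonism measured as loss of luciferase signal in GH3 cells stably carrying a TRE-luciferase reporter, co-treated with compound and T3 (1 nM final) for 23.5 h at 37 C. Viability was read in the same well by CellTiter-Fluor.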"}, "[8]": {"experiment": "qHTS assay to identify small molecule antagonists of the estrogen receptor alpha (ER-alpha) signaling pathway - cell viability counter screen (AID 743074; calls by dose curve; also: % is scaled to controls: 0 for no effect and ±100 for the full control effect; nearly all actives have a fitted effect of over 45% in size)"}, "[9]": {"target": "Estrogen receptor (Homo sapiens) (UniProt P03372)", "sequence (P03372 whole entry, looked up)": "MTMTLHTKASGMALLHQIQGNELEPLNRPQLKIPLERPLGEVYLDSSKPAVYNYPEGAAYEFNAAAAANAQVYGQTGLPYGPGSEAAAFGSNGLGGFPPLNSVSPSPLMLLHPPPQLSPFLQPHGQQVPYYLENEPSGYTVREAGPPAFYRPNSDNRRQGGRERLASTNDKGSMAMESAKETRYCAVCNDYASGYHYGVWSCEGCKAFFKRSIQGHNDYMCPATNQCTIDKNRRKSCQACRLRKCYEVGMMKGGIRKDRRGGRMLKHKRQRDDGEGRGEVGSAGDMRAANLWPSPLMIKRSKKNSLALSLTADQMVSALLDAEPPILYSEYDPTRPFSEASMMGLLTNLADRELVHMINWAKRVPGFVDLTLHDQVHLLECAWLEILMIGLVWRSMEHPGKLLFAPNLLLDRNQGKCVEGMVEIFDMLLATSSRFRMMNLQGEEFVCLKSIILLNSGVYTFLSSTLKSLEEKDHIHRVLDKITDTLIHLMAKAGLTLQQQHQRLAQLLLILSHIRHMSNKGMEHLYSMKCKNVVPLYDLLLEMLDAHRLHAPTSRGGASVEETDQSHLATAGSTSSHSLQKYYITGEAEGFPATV", "experiment": "qHTS assay to identify small molecule agonists of the estrogen receptor alpha (ER-alpha) signaling pathway (AID 743075; calls by dose curve; also: potency is read from the fitted curve at half-maximal effect)", "settings": "HEK293 ER-alpha-UAS-bla, beta-lactamase FRET ratio, 18 h; activation: at 70.1 µM (top of the series)"}, "[10]": {"target": "Estrogen receptor (Homo sapiens) (UniProt P03372)", "experiment": "qHTS assay to identify small molecule agonists of the estrogen receptor alpha (ER-alpha) signaling pathway using the BG1 cell line (AID 743079); also: nearly all actives have a fitted effect of over 20% in size; also: potency is read from the fitted curve at half-maximal effect", "settings": "BG1Luc4E2 cells, ERE-luciferase agonist, 22 h; activation: at 70.3 µM (top of the series) unless noted"}, "[11]": {"experiment": "qHTS assay to identify small molecule antagonists of the androgen receptor (AR) signaling pathway using the MDA cell line - cell viability counter screen (AID 743041; also: % is scaled to controls: 0 for no effect and ±100 for the full control effect; nearly all actives have a fitted effect of over 45% in size)", "settings": "MDA-kb2 viability, CellTiter-Fluor, 16 h, cells co-treated with R1881 androgen agonist; viability change, negative = cytotoxic: at 70.3 µM (top of the series)", "outline": "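Cells were plated at 3,000 per well and left 5 h. Compounds in DMSO were then pinned in, followed by R1881. After 16 h at 37C, CellTiter-Fluor fluorescence gave viability.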"}, "[12]": {"experiment": "qHTS assay to identify small molecule antagonists of the thyroid receptor (TR) signaling pathway - cell viability counter screen (AID 743064); also: nearly all actives have a fitted effect of over 50% in size; also: potency is read from the fitted curve at half-maximal effect", "settings": "GH3.TRE-Luc viability, CellTiter-Fluor, 24 h; activity change, negative = cytotoxic: at 70.3 µM (top of the series) unless noted", "outline": "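GH3.TRE-Luc rat pituitary cells dosed after 4 hr plating, co-stimulated with T3 at 1 nM final, incubated 23.5 h at 37 C. Viability measured in the same wells by CellTiter-Fluor fluorescence after 30 min further at 37 C.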"}, "[13]": {"experiment": "qHTS assay to identify small molecule antagonists of the estrogen receptor alpha (ER-alpha) signaling pathway using the BG1 cell line (AID 743080; calls by dose curve; also: % is scaled to controls: 0 for no effect and ±100 for the full control effect; nearly all actives have a fitted effect of over 25% in size)", "settings": "BG1Luc4E2 ERE-luciferase antagonist mode, luminescence; activity change, negative = inhibition: at 70.3 µM (top of the series) unless noted", "outline": "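BG1-Luc-4E2 cells (endogenous full-length ER-alpha, stable 4×ERE-luciferase) were starved 5 days in phenol-red-free medium with 10% charcoal-stripped FBS, plated 24 h, then given compound plus 17beta-estradiol for 21.5 h at 37 C; ONE-Glo luminescence read after 30 min.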"}, "[14]": {"experiment": "qHTS assay for identifying genotoxic compounds that show differential cytotoxicity against isogenic chicken DT40 cell lines with known DNA damage response pathways - wild type cell line (AID 743012); also: potency is read from the fitted curve at half-maximal effect; nearly all actives have a fitted effect of over 60% in size", "settings": "DT40 wild type chicken cells viability, CellTiter-Glo, 40 h; activity change, negative = cytotoxicity: at 68.4 µM (top of the series) unless noted", "outline": "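Wild-type DT40 cells (300/well) exposed to compounds for 40 hours at 37 C/5% CO2. Viability read by CellTiter-Glo luminescence after 30 min at room temperature.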"}, "[15]": {"target": "Estrogen receptor (Homo sapiens) (UniProt P03372)", "experiment": "qHTS assay to identify small molecule antagonists of the estrogen receptor alpha (ER-alpha) signaling pathway (AID 743069; active = well fitted curve in the direction sought with a large enough effect in the signal ratio in the repeat runs, not every such curve was filed as active; inconclusive = weak or mixed curves, or effect the other way; inactive = no such curve, though single readings can be large or run the other way; the % refers to the signal ratio; also: potency is read from the fitted curve at half-maximal effect)", "settings": "HEK293 ER-alpha-UAS-bla, beta-lactamase ratio, antagonist mode; activity, negative = inhibition: at 69.4 µM (top of the series) unless noted", "outline": "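ER-alpha-UAS-bla GripTite HEK293 line; 2% charcoal-stripped FBS overnight; plated, 4 hr 37C/5% CO2; cpd in DMSO + 17beta-estradiol, 18 hr 37C; LiveBLAzer B/G FRET substrate 2 hr RT; fluorescence intensity.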"}, "[16]": {"experiment": "qHTS assay to identify small molecule antagonists of the glucocorticoid receptor (GR) signaling pathway - cell viability counter screen (AID 720693); also: potency is read from the fitted curve at half-maximal effect; nearly all actives have a fitted effect of over 55% in size", "settings": "GR-bla HeLa viability, CellTiter-Glo luminescence, 18 h, with 5 nM dexamethasone present; viability change, negative = cytotoxic: at 58.5 µM (top of the series)"}, "[17]": {"target": "Aromatase (Homo sapiens) (UniProt P11511)", "sequence (P11511 whole entry, looked up)": "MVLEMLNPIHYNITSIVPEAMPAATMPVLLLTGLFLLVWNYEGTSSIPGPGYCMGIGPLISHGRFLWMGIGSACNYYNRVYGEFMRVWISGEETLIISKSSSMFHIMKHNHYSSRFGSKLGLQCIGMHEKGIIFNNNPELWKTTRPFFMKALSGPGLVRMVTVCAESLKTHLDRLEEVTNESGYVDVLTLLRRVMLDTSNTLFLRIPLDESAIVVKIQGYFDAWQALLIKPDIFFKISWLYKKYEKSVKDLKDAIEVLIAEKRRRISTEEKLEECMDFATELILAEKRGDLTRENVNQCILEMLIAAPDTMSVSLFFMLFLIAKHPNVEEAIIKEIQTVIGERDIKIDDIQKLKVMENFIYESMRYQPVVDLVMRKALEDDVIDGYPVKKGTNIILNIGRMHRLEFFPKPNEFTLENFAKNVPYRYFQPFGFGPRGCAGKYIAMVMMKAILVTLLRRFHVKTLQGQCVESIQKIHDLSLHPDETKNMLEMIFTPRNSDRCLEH", "experiment": "qHTS assay to identify aromatase inhibitors (AID 743083); also: potency is read from the fitted curve at half-maximal effect; nearly all actives have a fitted effect of over 55% in size"}, "[18]": {"tested_on": "thyroid hormone receptor (rat, GH3 cells)", "experiment": "qHTS assay to identify small molecule agonists of the thyroid receptor (TR) signaling pathway (AID 743066; calls by dose curve; also: % is scaled to controls: 0 for no effect and ±100 for the full control effect)", "settings": "GH3.TRE-Luc cells, TR agonist luciferase, 24 h; activation: at 83.9 µM (top of the series) unless noted"}},
  "note": "Activity calls are given as the source filed them. Unless noted, calls follow the shape of the dose curve; as a rule, active = well fitted curve in the direction sought with a large enough effect in the repeat runs; inconclusive = weak or mixed curves; inactive = no such curve, though single readings can be large; an effect the other way counts as inactive or inconclusive. Tags tell the direction and shape of the fitted curve or compound fluorescence and quenching.",
  "data": [
    {"smiles": "CC(=O)O[C@H]1CC[C@@]2(C)C(=CC[C@@H]3[C@@H]2CC[C@]2(C)C(c4cccnc4)=CC[C@@H]32)C1", "values": [
      {"measurement": "activation", "setting": "[1]", "value": "inconclusive: 8.68%"},
      {"measurement": "ratio activity, negative = MMP loss", "setting": "[2]", "value": "inconclusive: -22.7%"},
      {"measurement": "activity change, negative = inhibition", "setting": "[3]", "value": "inconclusive: -32.9%"},
      {"measurement": "Potency", "setting": "[4]", "value": "inconclusive: 0.298 µM [cytotoxic, full curve]"},
      {"measurement": "Potency", "setting": "[5]", "value": "inconclusive: 11.9 µM [cytotoxic, partial curve]"},
      {"measurement": "Potency", "setting": "[6]", "value": "inactive"},
      {"measurement": "Potency", "setting": "[7]", "value": "inconclusive: 33.5 µM [inhibitor, single point]"},
      {"measurement": "Potency", "setting": "[8]", "value": "inactive"},
      {"measurement": "Potency", "setting": "[9]", "value": "active: 13.4 µM [activator]"},
      {"measurement": "Potency", "setting": "[10]", "value": "active: 29.8 µM"}
    ]},
    {"smiles": "CCC(Oc1ccccc1)C(=O)N[C@@H]1C(=O)N2[C@@H]1SC(C)(C)[C@@H]2C(=O)O", "note": "(some centres not stated)", "values": [
      {"measurement": "Potency", "setting": "[1]", "value": "inconclusive: 15 µM [activator, partial curve, poor fit]"},
      {"measurement": "Potency", "setting": "[2]", "value": "inconclusive: 26.6 µM [inhibitor, partial curve, poor fit]"},
      {"measurement": "Potency", "setting": "[4]", "value": "inconclusive: 26.6 µM [rising, partial curve, poor fit]"},
      {"measurement": "Potency", "setting": "[11]", "value": "inactive"},
      {"measurement": "Potency", "setting": "[12]", "value": "inactive"},
      {"measurement": "Potency", "setting": "[13]", "value": "inactive"}
    ]},
    {"smiles": "CCCCCCCCCCCC(=O)N(CCO)CCO", "values": [
      {"measurement": "Potency", "setting": "[1]", "value": "inconclusive: 2.98 µM [activator, single point]"},
      {"measurement": "ratio activity, negative = MMP loss", "setting": "[2]", "value": "inconclusive: 31.9%"},
      {"measurement": "activity change, negative = inhibition", "setting": "[3]", "value": "inconclusive: 7.69%"},
      {"measurement": "Potency", "setting": "[14]", "value": "active: 29.8 µM"},
      {"measurement": "Potency", "setting": "[5]", "value": "active: 26.6 µM"},
      {"measurement": "Potency", "setting": "[12]", "value": "inconclusive: 33.5 µM [cytotoxic, single point]"},
      {"measurement": "Potency", "setting": "[7]", "value": "inconclusive: 29.8 µM [inhibitor, partial curve]"},
      {"measurement": "activity, negative = inhibition", "setting": "[15]", "value": "inconclusive: -20.2%"}
    ]},
    {"smiles": "N[C@H](C(=O)O)[C@@H]1CC(Cl)=NO1", "values": [
      {"measurement": "Potency", "setting": "[1]", "value": "active: 2.98 µM"},
      {"measurement": "Potency", "setting": "[2]", "value": "inactive"},
      {"measurement": "Potency", "setting": "[16]", "value": "inconclusive: 8.49 µM [cytotoxic, partial curve]"},
      {"measurement": "Potency", "setting": "[15]", "value": "inconclusive: 26.8 µM [inhibitor]"},
      {"measurement": "Potency", "setting": "[10]", "value": "inactive"},
      {"measurement": "Potency", "setting": "[17]", "value": "inconclusive: 6.68 µM [inhibitor]"}
    ]},
    {"smiles": "C[C@]12CC[C@@H]3c4ccc(O)cc4CC[C@H]3[C@@H]1CC[C@@H]2OP(=O)(O)O", "values": [
      {"measurement": "activation", "setting": "[1]", "value": "inconclusive: 11.7%"},
      {"measurement": "ratio activity, negative = MMP loss", "setting": "[2]", "value": "inconclusive: -13.6%"},
      {"measurement": "Potency", "setting": "[4]", "value": "inactive"},
      {"measurement": "Potency", "setting": "[18]", "value": "inactive"},
      {"measurement": "Potency", "setting": "[8]", "value": "inactive"},
      {"measurement": "Potency", "setting": "[9]", "value": "active: 0.0013 µM [inconclusive]"},
      {"measurement": "Potency", "setting": "[10]", "value": "active: 0.0021 µM"}
    ]}
  ]
}
